Measurements taken from PubChem BioAssay AID652104 (National Center for Advancing Translational Sciences (NCATS), 2013).
In all, about 410,000 compounds went through this assay and about 7,200 (1.8%) were called active. The shares of active, inactive and inconclusive entries below differ from those in the screen. Calls come from the whole dose curve; as a rule, active = well fitted activation curve with a large enough effect; inconclusive = small, poorly fitted or top-dose-only effect, or another doubt; inactive = no such curve, though single readings can be large or run the other way. Potencies of inconclusive entries are doubtful fits and often do not repeat.

test: qHTS of TDP-43 Inhibitors; details: TDP-43 expressing yeast growth rescue, BacTiter-Glo, 24 h; growth rescue (activation): at 46.1 µM (top of the series) unless noted; note: nearly all actives have a fitted effect of over 50% in size; for growth rescue (activation): % of control where 0% means no effect
In short: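 Galactose-induced TDP-43 yeast, OD600=0.02, compound pinned; 24 hr, 30 deg C; BacTiter-Glo luminescence for growth. Inhibitors of TDP-43 toxicity read as activators.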
Potency is the fitted concentration of half-maximal effect; tags give direction and shape of the fitted curve.

Growth rescue (activation), inconclusive:
OC(c1ccccc1)c1nc(-c2ccc(F)c(Cl)c2)cs1 (centres undefined) -38.7% [activator]

Potency, inconclusive:
O=C1c2ccccc2C(Nc2ccccc2)N1Cc1ccc2c(c1)OCO2 (centres undefined) 20 µM [activator, single point], N#Cc1ccc(OCC(=O)NCC2COc3ccccc3O2)cc1 (centres undefined) 17.8 µM [activator, partial curve, poor fit], CCOC(=O)c1c(NC(=O)C2CCCO2)sc(C)c1C (centres undefined) 10 µM [activator, partial curve], O=C(Cn1ncc2c3ccccc3n(Cc3ccccc3)c2c1=O)N1CCCCCC1 4.47 µM [activator, full curve, poor fit], Fc1ccc(CNc2nc(-c3ccco3)cc(C(F)(F)F)n2)cc1 28.2 µM [activator, single point], COc1ccc(C2C=C(c3ccc(C)cc3)Nc3c(C(=O)Nc4ccccc4)cnn32)cc1 (centres undefined) 6.31 µM [activator, single point], Cn1cccc1C1C=C(c2ccc(C(C)(C)C)cc2)Nc2ncnn21 (centres undefined) 10 µM [activator, partial curve], Cn1c(SCC(=O)N2CCCc3ccccc32)nc2cccnc21 35.5 µM [activator, single point], COc1ccc(OCC(=O)N2CCN(c3cccc(C(F)(F)F)c3)CC2)cc1 25.1 µM [activator, single point], COc1ccccc1C(=O)COC(=O)COc1cccc2c1OC(C)(C)C2 12.6 µM [activator, single point], CN(C)C(=O)c1ccc(SC(=S)NCc2ccccc2)cc1 0.316 µM [activator, full curve], Cc1ccc(-c2csc(NC(=O)c3cccs3)n2)cc1 7.08 µM [activator, partial curve], C=CCn1c(CSc2ccc(C)cc2)n[nH]c1=S 31.6 µM [activator, partial curve, poor fit], C[C@H](CO)N1C[C@H](C)[C@@H](CN(C)CC2CC2)OCc2cnnn2CCCC1=O 1 µM [activator, full curve], N#Cc1ccccc1CCN1C(=O)c2ccccc2C1=O 7.94 µM [activator, single point], CN(C)c1cc[n+](CCC(=O)Nc2cccc([N+](=O)[O-])c2N)cc1 25.1 µM [activator, partial curve], Cc1ccc(NC(=O)CCc2nc3cccnc3n2-c2ccccc2)cc1 0.316 µM [activator, full curve, poor fit], Cc1cccc(N2CCN(c3ncnc4onc(-c5ccc(F)cc5)c34)CC2C)c1 (centres undefined) 35.5 µM [activator, single point], COc1cc(C=O)ccc1OCCOCCOc1ccc(Cl)cc1Cl 35.5 µM [activator, single point], O=C(Nc1cccc(NC(=O)C2CC2)n1)C1CC1 0.562 µM [activator, full curve, poor fit], COC(=O)c1c(NC(=O)c2ccc([N+](=O)[O-])o2)sc2c1CCN(C(C)C)C2 11.2 µM [activator, partial curve], COCCCN(C(=O)Nc1ccccc1)C(C)c1ccncc1 (centres undefined) 3.98 µM [activator, full curve], CCOC(=O)C1CCc2c(ccc3ccccc23)N1CCC#N (centres undefined) 10 µM [activator, partial curve], Cc1ccc(C(=O)Nc2ncc(Cc3ccccc3)s2)o1 3.55 µM [activator, partial curve], COc1ccc(OC)c(NC(=O)C2(C)CCN2C(=O)Cc2ccc(Cl)cc2Cl)c1 (centres undefined) 22.4 µM [activator, partial curve], COCCN(Cc1cc2c(C)cc(C)cc2nc1Cl)C(=O)c1ccccc1F 15.8 µM [activator, partial curve, poor fit], Oc1c(Br)cc(Br)cc1/C=N/n1c(-c2ccccc2)n[nH]c1=S 20 µM [activator, partial curve, poor fit], COc1ccc(-c2onc(C)c2C)cc1S(=O)(=O)NC1CCCCC1 35.5 µM [activator, single point]

Potency, inactive:
O=C1C=CC(=C(c2ccc(O)cc2)c2ccc(O)cc2)C=C1, CCCS(=O)(=O)c1c(S(=O)(=O)CCC)c2cc(C(C)(C)C)ccn2c1C(=O)c1ccc(OC)c(OC)c1, Cc1cc(N2CCCCCC2)nc(-c2ccccc2O)n1, CCOC(=O)c1[nH]c2ccccc2c1NC(=O)c1ccc(OC)c(OC)c1, CCOC(=O)c1[nH]c2ccccc2c1NC(=O)c1cc(Cl)ccc1Cl, O=C(CC(c1cccs1)N1Cc2ccccc2C1=O)Nc1ccc(Cl)cc1 (centres undefined), C=C1CCC2C(C)(C)[C@H](O)CC[C@@]2(C)[C@@H]1COc1cc(=O)oc2ccccc12 (some centres undefined), CCN(CC)C(=O)[C@H]1C[C@H](CC(=O)NCc2ccco2)C(=O)N2CCc3c([nH]c4ccc(Cl)cc34)[C@]12C, CC(C)Oc1cc(F)ccc1-c1cc(C(=O)NC2CCCCC2)[nH]n1

Potency, active:
Cc1cccc(N2CCN(C(=O)c3ccc4ncsc4c3)CC2)c1C 11.2 µM, Cc1ccc(CONS(=O)(=O)c2cc(C)ccc2C)cc1 31.6 µM, CCc1cc(C(=O)N2CCN(c3ccccc3OC)CC2)sc1C 12.6 µM, CC(=O)NC1=C(NC2CCS(=O)(=O)C2)C(=O)c2ccccc2C1=O (centres undefined) 25.1 µM, COc1ccc(S(=O)(=O)Nc2ccc(O)c(Sc3nc4ccccc4s3)c2)cc1 31.6 µM, O=C(Cc1ccccc1)c1c[nH]c(C(=O)C(Cl)(Cl)Cl)c1 12.6 µM
